Data reported in the supplement of paper PMC4166925.
± gives the standard deviation of the averaged measurements. The full ranking holds about 33,000 sequences; the median of “E-score (dimensionless, -0.5 to 0.5)” is about -0.046, and the highest 2% start at about 0.36. The list shows a part of the results.

The sequences below were run on T1, SpTbr T-box DNA-binding domain (GST fusion) (assay: PBM E-score of 8-mer (E-score (dimensionless, -0.5 to 0.5)); Tbr is Tbrain of the sea star Patiria miniata (Pm) or the sea urchin Strongylocentrotus purpuratus (Sp); higher = stronger binding preference; most listed sequences are background and not binding sites). Conditions: the construct has about 5 more residues each side.
T1 sequence: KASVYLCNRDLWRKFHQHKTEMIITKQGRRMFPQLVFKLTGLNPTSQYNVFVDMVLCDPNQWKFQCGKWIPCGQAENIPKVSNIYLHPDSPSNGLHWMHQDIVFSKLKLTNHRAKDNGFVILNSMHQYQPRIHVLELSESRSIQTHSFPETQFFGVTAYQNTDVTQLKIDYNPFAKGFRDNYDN
How it was run: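 Primer extension turned Universal Agilent oligonucleotide arrays double-stranded. They were incubated with 200 nM protein in PBS (pH 7.5); the protein was a GST-fused Tbr T-box DNA-binding domain expressed in BL21 E. coli at 20 °C and purified on glutathione. Every ungapped 8-mer was scored from the scanned, quantified probe intensities, and the Universal PBM Analysis Suite gave each an enrichment E-score averaged over duplicate arrays.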

| Sequence | PBM E-score of 8-mer |
| --- | --- |
| GCGGCACA | 0.213 ± 0.0051 |
| GACCCGGC | -0.242 ± 0.074 |
| CACGTTGA | 0.248 ± 0.059 |
| GGTTCGGA | -0.2634 ± 0.0013 |
| AGCAAACG | -0.0137 ± 0.0085 |
| ATGAGCGA | 0.118 ± 0.036 |
| ATTTAACC | -0.172 ± 0.021 |
| GTTTAGCA | 0.102 ± 0.11 |
| TCTACAGA | -0.171 ± 0.065 |
| AACAACTA | 0.176 ± 0.076 |
| TCCAGCGA | -0.0842 ± 0.0072 |
| CGAGGAGC | -0.0753 ± 0.036 |
| GCAACTAC | -0.0321 ± 0.038 |
| CACGGGCC | -0.108 ± 0.01 |
| CACGACTA | 0.106 ± 0.022 |
| GCTAGCCA | -0.0612 ± 0.093 |
| GTTACCGA | 0.213 ± 0.0097 |
| CTCTATGC | -0.0358 ± 0.11 |
| TAGAACAA | -0.0724 ± 0.0032 |
| CGCGTATA | -0.016 ± 0.053 |
| CGGATTAA | -0.00536 ± 0.027 |
| GTCCGAAC | -0.119 ± 0.024 |
| AGGGGCAC | -0.188 ± 0.016 |
| CACAAACG | 0.1235 ± 0.00028 |
| CCGTGGAC | 0.0413 ± 0.044 |

| Sequence | PBM E-score of 8-mer |
| --- | --- |
| AGTGGACA | 0.0111 ± 0.012 |
| CGGGATAA | 0.022 ± 0.00066 |
| AGTTCAGG | -0.194 ± 0.015 |
| CACTAGAA | 0.0999 ± 0.028 |
| CGAATTTC | 0.0232 ± 0.088 |
| CACCTCCG | 0.4516 ± 0.0039 |
| ATCTAGCG | 0.0233 ± 0.056 |
| CCTTTGGC | 0.0256 ± 0.0067 |
| CACGACAC | 0.276 ± 0.033 |
| CCACAAGA | 8e-05 ± 0.012 |
| CCGGCGGC | -0.0887 ± 0.055 |
| ATAGCATG | -0.0688 ± 0.022 |
| GGATAAAA | -0.201 ± 0.0081 |
| AGACACAC | 0.233 ± 0.011 |
| CGAACCCC | -0.048 ± 0.073 |
| ATGTTGTC | 0.236 ± 0.046 |
| AGGTGCGC | 0.3101 ± 0.0015 |
| CCAACGAA | -0.0449 ± 0.018 |
| CTGAACCC | -0.1951 ± 0.00092 |
| AAGTAACC | -0.0857 ± 0.11 |
| GCGACAAC | 0.369 ± 0.007 |
| GTACTCCA | -0.205 ± 0.093 |
| GAATTCTA | -0.289 ± 0.039 |
| GAAGTTCC | -0.206 ± 0.053 |
| TAGACCGA | -0.124 ± 0.012 |

| Sequence | PBM E-score of 8-mer |
| --- | --- |
| CCTCATTC | 0.0262 ± 0.016 |
| GCCTAATA | -0.199 ± 0.023 |
| ATGCGTCA | 0.229 ± 0.014 |
| ATCGTATG | 0.0651 ± 0.053 |
| CTATAAAA | -0.183 ± 0.16 |
| AGTGGGAT | 0.00508 ± 0.037 |
| CCTTCCCA | -0.193 ± 0.045 |
| AAGACCCA | -0.179 ± 0.0091 |
| CTAATACA | -0.0313 ± 0.019 |
| AAATAACA | 0.105 ± 0.097 |
| GCACACGC | 0.171 ± 0.051 |
| CCAGAAGC | -0.0847 ± 0.077 |
| TAATCTAA | -0.179 ± 0.017 |
| GATACGGC | -0.203 ± 0.013 |
| GCCAAGCA | -0.111 ± 0.026 |
| ATAGCCCC | -0.0453 ± 0.025 |
| CCATCAAA | -0.133 ± 0.063 |
| CAGATCAA | -0.17 ± 0.0024 |
| GTATCATA | -0.107 ± 0.026 |
| ACGTCAGA | 0.141 ± 0.023 |
| CGGTGAAG | -0.0826 ± 0.034 |
| AAGCCTTC | -0.0111 ± 0.0084 |
| CTGGACTC | -0.177 ± 0.015 |
| ACGAGCAC | -0.101 ± 0.069 |
| ACCTTCAA | -0.0237 ± 0.028 |

| Sequence | PBM E-score of 8-mer |
| --- | --- |
| CCATCTCA | 0.00728 ± 0.00059 |
| CAAGTCGC | 0.253 ± 0.031 |
| AGAAATTG | -0.0311 ± 0.051 |
| CTACTCTC | -0.1 ± 0.0084 |
| CCATCGCA | 0.0592 ± 0.064 |
| GGCCTATA | -0.289 ± 0.0084 |
| AATTTTAG | 0.051 ± 0.11 |
| AGTGCGGC | 0.162 ± 0.028 |
| ATACGCTC | -0.267 ± 0.042 |
| CGTTGGTC | -0.052 ± 0.051 |
| CCTTTCGC | 0.283 ± 0.029 |
| CACCGTAG | -0.0705 ± 0.065 |
| ACTCCTAT | -0.0795 ± 0.043 |
| CGCCCGCG | 0.125 ± 0.043 |
| CGGGTACA | 0.042 ± 0.056 |
| TATCATGA | -0.0943 ± 0.0042 |
| GACCCGAC | 0.0333 ± 0.051 |
| ACCTTATA | 0.168 ± 0.0061 |
| CCAAACGG | -0.0822 ± 0.037 |
| ACCTAGAA | -0.0152 ± 0.079 |
| ATTTATAC | -0.167 ± 0.015 |
| AATTGGCC | -0.0613 ± 0.078 |
| GCCTTCCA | -0.108 ± 0.03 |
| CGCAGGTA | 0.112 ± 0.055 |
| AGCCGGAC | -0.209 ± 0.008 |

| Sequence | PBM E-score of 8-mer |
| --- | --- |
| GGGGAGAA | -0.198 ± 0.028 |
| CGCCCCCC | -0.233 ± 0.038 |
| CGTTACTC | -0.0953 ± 0.0024 |
| CCGGTTAA | -0.0665 ± 0.0056 |
| GTAAAGTA | -0.127 ± 0.051 |
| CAAGTGTC | 0.351 ± 0.012 |
| AACCAGAG | -0.0943 ± 0.0014 |
| CCAATGTA | -0.0798 ± 0.034 |
| GCACGACC | -0.179 ± 0.015 |
| ATTCCCTC | -0.193 ± 0.027 |
| AAGCGGGT | 0.216 ± 0.0078 |
| CCTTAAGA | -0.147 ± 0.046 |
| GAACAGAA | -0.147 ± 0.049 |
| ATATAGAG | -0.0994 ± 0.018 |
| ACCTCCTA | 0.111 ± 0.063 |
| CAGAATCG | -0.0731 ± 0.034 |
| AGTTGGAT | -0.188 ± 0.013 |
| CGACATAC | -0.0372 ± 0.058 |
| GCAGGATA | -0.167 ± 0.1 |
| AGTTACAC | 0.233 ± 0.03 |
| GACGGCAC | 0.0298 ± 0.048 |
| ACGTATCG | 0.0188 ± 0.013 |
| AGCGAGAA | 0.262 ± 0.013 |
| TCAACAGA | -0.139 ± 0.031 |
| CGCAGTGC | 0.0855 ± 0.039 |

| Sequence | PBM E-score of 8-mer |
| --- | --- |
| ACGTGCTC | -0.0289 ± 0.052 |
| CAGAAGCA | -0.19 ± 0.037 |
| ACGGCTCA | -0.0392 ± 0.022 |
| ATACTAAC | -0.0964 ± 0.029 |
| CCCGGGCG | 0.0721 ± 0.01 |
| ACGTACTG | -0.109 ± 0.093 |
| CACGTAGG | 0.0681 ± 0.018 |
| CGGAATTC | -0.231 ± 0.021 |
| ACCGTGCC | 0.0053 ± 0.0095 |
| CTTATTAC | -0.0668 ± 0.034 |
| ACCTACTG | 0.0642 ± 0.017 |
| CTGCGAGA | 0.185 ± 0.0098 |
| GATCACCC | 0.0102 ± 0.021 |
| ACTGCTGG | -0.168 ± 0.017 |
| CGTGCACC | 0.0746 ± 0.014 |
| ACAATTCA | 0.163 ± 0.069 |
| TCCTGTAA | -0.138 ± 0.015 |
| ACACCTGC | 0.4527 ± 0.0032 |
| ATGTATTC | -0.254 ± 0.091 |
| CTCGGCCA | -0.164 ± 0.035 |
| ACGAGTAA | 0.0275 ± 0.051 |
| GCTCAGTA | -0.162 ± 0.0083 |
| ATACAGCG | 0.133 ± 0.0018 |
| CTTATAAC | -0.0308 ± 0.017 |
| AAAGTTTG | -0.114 ± 0.061 |

| Sequence | PBM E-score of 8-mer |
| --- | --- |
| CTACCCAC | -0.158 ± 0.17 |
| ATAGGCAT | -0.2399 ± 0.0023 |
| CTGTCAAA | 0.249 ± 0.057 |
| GTCACACA | 0.409 ± 0.03 |
| ACTACTAT | -0.169 ± 0.051 |
| GATGGCGC | 0.105 ± 0.048 |
| CGTGGATC | -0.182 ± 0.078 |
| ACGTAAGA | -0.315 ± 0.025 |
| TAATTCAA | -0.248 ± 0.0075 |
| GACTCGAA | -0.0599 ± 0.11 |
| GCGAGTCC | 0.0449 ± 0.033 |
| CTGTCGCC | 0.284 ± 0.035 |
| ATCGGGCC | -0.225 ± 0.024 |
| GAGCTCTA | -0.34 ± 0.0046 |
| CGCCTGGA | 0.1 ± 0.088 |
| AATCAACA | 0.183 ± 0.027 |
| CTTGAGCC | 0.0106 ± 0.00092 |
| ATCAACAC | 0.358 ± 0.021 |
| CTTCATAC | -0.16 ± 0.042 |
| ACATCTAG | -0.0547 ± 0.053 |
| TCTAGACA | -0.211 ± 0.0084 |
| CCGTGCGA | 0.293 ± 0.012 |
